Test results from PubChem BioAssay AID504332 (National Center for Advancing Translational Sciences (NCATS), 2011).
Several values for one entry are separate records, joined by “and”; a condition that tells them apart may be missing. Equal values may be shown once. Hit rate of the full screen: of about 350,000 compounds, about 31,000 (8.9%) were called active. The inconclusive results got no clear call from the source; some entries with a clear call stand among them for comparison. The call rests on the fitted dose curve; in most records, active means well fitted inhibition curve with a large enough effect; inconclusive means small, poorly fitted or top-dose-only effect; inactive means no such curve, though single readings can be large or run the other way. Where the call is inconclusive, the potency comes from a doubtful curve fit.

Target: Histone-lysine N-methyltransferase EHMT2 (Homo sapiens) (UniProt Q96KQ7)
UniProt Q96KQ7, sequence (Q96KQ7 whole entry, looked up): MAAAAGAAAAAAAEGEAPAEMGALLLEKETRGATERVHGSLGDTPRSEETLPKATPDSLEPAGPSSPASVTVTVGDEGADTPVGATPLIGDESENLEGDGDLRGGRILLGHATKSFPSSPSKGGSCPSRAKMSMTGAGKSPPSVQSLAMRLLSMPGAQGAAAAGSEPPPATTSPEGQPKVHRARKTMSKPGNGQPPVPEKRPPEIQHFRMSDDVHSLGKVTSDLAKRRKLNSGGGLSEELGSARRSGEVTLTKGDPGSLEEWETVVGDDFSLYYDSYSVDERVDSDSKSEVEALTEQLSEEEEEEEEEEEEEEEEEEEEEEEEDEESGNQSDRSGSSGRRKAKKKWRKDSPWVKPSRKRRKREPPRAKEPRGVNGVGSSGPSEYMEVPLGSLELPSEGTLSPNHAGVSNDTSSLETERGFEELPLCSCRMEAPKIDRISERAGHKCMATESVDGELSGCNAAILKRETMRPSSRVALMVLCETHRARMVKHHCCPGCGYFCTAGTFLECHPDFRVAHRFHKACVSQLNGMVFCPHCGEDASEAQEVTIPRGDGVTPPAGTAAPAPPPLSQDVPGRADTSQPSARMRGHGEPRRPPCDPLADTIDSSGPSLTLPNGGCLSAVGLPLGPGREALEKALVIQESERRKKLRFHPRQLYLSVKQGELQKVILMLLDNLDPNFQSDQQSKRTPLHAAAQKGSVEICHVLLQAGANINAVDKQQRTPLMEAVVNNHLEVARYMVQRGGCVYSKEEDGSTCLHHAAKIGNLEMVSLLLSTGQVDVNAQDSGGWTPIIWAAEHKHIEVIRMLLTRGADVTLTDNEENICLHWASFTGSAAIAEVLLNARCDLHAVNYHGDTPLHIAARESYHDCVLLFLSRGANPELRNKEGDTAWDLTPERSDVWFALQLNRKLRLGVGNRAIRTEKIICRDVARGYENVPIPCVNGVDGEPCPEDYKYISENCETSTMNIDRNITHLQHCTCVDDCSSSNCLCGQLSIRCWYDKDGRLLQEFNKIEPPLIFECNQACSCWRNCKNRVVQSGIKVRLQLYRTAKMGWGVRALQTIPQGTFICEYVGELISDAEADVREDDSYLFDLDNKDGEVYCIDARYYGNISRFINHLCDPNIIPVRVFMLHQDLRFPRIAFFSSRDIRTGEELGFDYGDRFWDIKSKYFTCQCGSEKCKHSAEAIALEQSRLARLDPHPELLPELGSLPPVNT
Experiment: qHTS Assay for Inhibitors of Histone Lysine Methyltransferase G9a; further: nearly all actives have a fitted effect of over 75% in size
Settings: G9a H3K9 monomethylation, AlphaScreen, 2 h; activity, negative = inhibition: at 59 µM (top of the series) unless noted
Procedure, shortened: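 G9a (20 nM) preincubated 15 min RT with compounds, then 500 nM biotinylated H3K9 peptide and 20 uM SAM added; 2 h RT reaction. Monomethyl-H3K9 product detected by AlphaScreen with anti-H3K9me1 antibody, streptavidin donor and anti-rabbit IgG acceptor beads.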
On the % scale 0 is the no-effect control and ±100 the full control effect; potency means the concentration at half of the fitted maximal effect; tags describe the fitted curve by direction and shape.

SMILES | Potency | activity, negative = inhibition
CCOC(=O)C1C(C(C)=O)=C(c2ccccc2)c2ccccc2N1S(=O)(=O)C(F)(F)F (configuration not stated) | inconclusive: 11.2 µM [inhibitor, partial curve, poor fit] | –
CC(=O)N1c2ccc(S(=O)(=O)N3CCCCC3)cc2CC1C(=O)Nc1cccc(C)c1 (configuration not stated) | inconclusive: 0.794 µM [inhibitor, partial curve, poor fit] | –
O=C(Nc1cc(S(=O)(=O)N2CCCCC2)ccc1O)c1ccccc1NS(=O)(=O)c1ccc(F)c(F)c1 | inconclusive: 70.8 µM [inhibitor, partial curve, poor fit] | –
COc1cc(C(=S)N2CCCC2)ccc1OCc1ccc(C)cc1 | active: 31.6 µM | –
O=c1c2c(-c3ccccc3)csc2ncn1/N=C/c1c2ccccc2cc2ccccc12 | inconclusive: 22.4 µM [inhibitor, single point] | –
CN1CCN(c2nc3ccccn3c(=O)c2C=O)CC1 | inconclusive: 79.4 µM [inhibitor, single point] | –
COc1ccc(Br)cc1CN(C)CC(=O)NCCc1ccccc1 | active: 3.98 µM | –
CCOC(=O)CN1C(=O)C(=O)N(Cc2cccc(C)c2)C1=O | inconclusive: 39.8 µM [inhibitor, partial curve, poor fit] | –
Brc1ccc([C@H]2CN3CCSC3=N2)cc1 | inactive and inconclusive: 56.2 µM [inhibitor, partial curve] | –
CCOc1ccc(-n2c(SCC(N)=O)nc3sc4c(c3c2=O)CCN(C)C4)cc1 | inconclusive: 44.7 µM [inhibitor, partial curve] | –
Nc1ccc(C2=Nc3cccc4cccc(c34)N2)cc1 | inconclusive: 1.78 µM [inhibitor, partial curve, poor fit] | –
Cc1ccc(NC(=O)COc2cccc(-n3cnnn3)c2)cc1S(=O)(=O)N1CCOCC1 | – | inactive: 20.9% [at 12.7 µM]
Cc1ccc(-c2nc(SCC(=O)Nc3ccccc3OC(F)F)c3c(C)c(C(=O)O)sc3n2)cc1 | – | inconclusive: -76% [inhibitor]
COCCn1c(N)c(N(Cc2ccccc2)C(=O)c2ccc3ccccc3c2)c(=O)[nH]c1=O | inconclusive: 79.4 µM [inhibitor, single point] | –
CCc1nnc(NC(=O)c2cc(-c3ccncc3)nc3ccccc23)s1 | inconclusive: 70.8 µM [inhibitor, single point] | –
CCOC(=O)C1=C(C)OC(N)=C(C#N)C1c1cc2cc(C)ccc2nc1N1CCCCC1 (configuration not stated) | active: 10 µM | –
O=C(NC1CCCCC1)C1CCCN1C(=O)NCc1ccccc1 (configuration not stated) | inconclusive: 7.94 µM [inhibitor, partial curve, poor fit] | –
Clc1ccc(-c2nnc3n2CCCCC3)cc1 | inconclusive: 89.1 µM [inhibitor, single point] | –
CCCC(=O)Nc1ccc(NC(=O)CCc2ccccc2)cn1 | inactive | –
O=C(/C=C/c1ccccc1)NC(=S)NNC(=O)Cc1cccs1 | inconclusive: 3.16 µM [inhibitor, full curve, poor fit] | –
COc1cc(OC)nc(Oc2ccccc2C(=O)Oc2ccc(Cl)cc2)n1 | inactive | –

SMILES | Potency | activity, negative = inhibition
CCSc1ncc(/C=N/Nc2ccc([N+](=O)[O-])cc2)n1C | inconclusive: 17.8 µM [inhibitor, single point] | –
CCN1CCN(c2csc3ccc(F)cc3c2=O)CC1 | inconclusive: 25.1 µM [inhibitor, partial curve, poor fit] | –
CCCCN(Cc1cccs1)S(=O)(=O)c1cc(-c2cc(C)no2)ccc1C | inactive | –
Cc1ccc(C)c(S(=O)(=O)Nc2ccc3scnc3c2)c1 | – | inactive: 0.147% [at 12.7 µM]
C=CCN1C(=O)CS/C1=N\N=C\c1cccc([N+](=O)[O-])c1 | inconclusive: 79.4 µM [inhibitor, partial curve, poor fit] | –
O=C(Nc1ccc(OC(F)F)cc1)c1ccccn1 | inconclusive: 3.55 µM [inhibitor, full curve, poor fit] | –
Nc1nc(SCC(=O)C23CC4CC(CC(C4)C2)C3)n[nH]1 | active: 35.5 µM | –
Cc1ccc2nc(NC(=O)CSc3nncc(=O)n3N)sc2c1 | inactive | –
CC(=O)N1c2ccc(S(=O)(=O)NCC3CCC(C(=O)Nc4cc(C)ccn4)CC3)cc2CC1C (configuration not stated) | inactive | –
CN1C(=O)C(=O)/C(=C(/O)c2ccc(Br)cc2)C1c1ccccc1F (configuration not stated) | inconclusive: 0.794 µM [inhibitor, partial curve, poor fit] | –
CCC(C)(C)n1nnnc1C(c1ccc2ncccc2c1)N1CCCCCC1 (configuration not stated) | inconclusive: 31.6 µM [inhibitor, single point] | –
COC(=O)c1ccccc1NC(=O)CN1CCC(n2nnc3cc(C)ccc32)CC1 | inconclusive: 0.562 µM [inhibitor, full curve] | –
O=C(O)CSc1ccccn1 | inconclusive: 63.1 µM [inhibitor, partial curve, poor fit] | –
COc1cccc(CNC(=O)c2[nH]c3cc(C)ccc3c2Sc2ccccc2)c1 | inconclusive: 39.8 µM [inhibitor, single point] | –
CN(C)c1ccc(/C=N/NC(=O)C(=O)N2CCCCCC2)cc1 | inconclusive: 79.4 µM [inhibitor, single point] | –
CC(C)(C)Cc1nnc(NS(=O)(=O)c2ccccc2)s1 | active: 79.4 µM | –
O=C(NCc1ccc2c(c1)OCO2)c1ccc(CS(=O)(=O)c2ccc(Br)cc2)o1 | inconclusive: 31.6 µM [inhibitor, partial curve, poor fit] | –
Cc1cc(N/N=C/c2ccc(O)cc2)nc(NS(=O)(=O)c2ccccc2)n1 | inconclusive: 39.8 µM [inhibitor, single point] | –
O=C(c1ccc(NS(=O)(=O)c2cccc3cccnc23)cc1)N1CCCCC1 | inconclusive: 56.2 µM [inhibitor, single point] | –
Cc1cccn2c(=O)cc(CSc3nnc(NC(=O)COc4ccc(F)cc4)s3)nc12 | inactive | –
O=C(Nc1nc(-c2cccs2)c(-c2ccccc2)s1)c1ccco1 | inconclusive: 20 µM [inhibitor, partial curve, poor fit] | –
